Data as given in US20230331822A1 (published 2023).

How the values were obtained:
[1] = target: T1, SARS-CoV Spike protein, full length, C-terminally fused with EGFP (SARS-CoV); test: flow cytometry, HEK293 cells expressing full-length Spike-EGFP, anti-hIg-PE
T1 construct: whole, on cells

[2] = target: T2, MERS-CoV Spike protein, full length, C-terminally fused with EGFP (MERS-CoV); test: as above
T2 construct: whole, on cells

Row | Binder | binding result [1] | binding result [2]
1 | COV2-121-15-Fc (Fc fusion) QLQLVESGGDLVQPGESLRLSCVASFDDFAIGWIGWFRQAPGKEREGVSCSARGIVNTSYADSVRGRFTISRENAKNAVYLEMNSLKPEDTAVYYCAALVGLNDRSLPHEAEEYDYWGQGTQVTVSS[human IgG1 Fc with changes not listed] | no binding | no binding
2 | COV2-237-13-Fc (Fc fusion) QLQLVESGGDLVQPGESLRLSCVASFKSYHIAWIGWFRQAPGKEREGVSCSLTGASITSYADSVRGRFTISRENAKNAVYLEMNSLKPEDTAVYYCAARDYASSLYCSRNEAMYAYWGQGTQVTVSS[human IgG1 Fc with changes not listed] | no binding | no binding
3 | COV2-115-7-Fc (Fc fusion) QLQLVESGGDLVQPGESLRLSCVASGFSLDGYAIGWFRQAPGKEREGVSCIGRLGTTTSYADSVRGRFTISRENAKNAVYLEMNSLKPEDTAVYYCAAKRSTWFGCSTLDDYDYWGQGTQVTVSS[human IgG1 Fc with changes not listed] | no binding | no binding
4 | COV2-120-17-Fc (Fc fusion) QLQLVESGGDLVQPGESLRLSCVASGHTGSTYIIGWFRQAPGKEREGVSCISRSGILRSYADSVRGRFTISRENAKNAVYLEMNSLKPEDTAVYYCAARDSLTGVIGNTPGEYDYWGQGTQVTVSS[human IgG1 Fc with changes not listed] | no binding | no binding
5 | COV2-360-3-Fc (Fc fusion) QLQLVESGGDLVQPGESLRLSCVASGFTLDSYAIGWFRQAPGKEREGVSCITKHGGTTSYADSVRGRFTISRENAKNAVYLEMNSLKPEDTAVYYCAADHRALRFGCAVVPGPYDYWGQGTQVTVSS[human IgG1 Fc with changes not listed] | no binding | no binding
6 | COV2-18-21-Fc (Fc fusion) QLQLVESGGDLVQPGESLRLSCVASGRTFSTYAIGWFRQAPGKEREGVSCISPSRIITSYADSVRGRFTISRENAKNAVYLEMNSLKPEDTAVYYCAADSSYGGRLGRRIDDYEYWGQGTQVTVSS[human IgG1 Fc with changes not listed] | no binding | no binding
7 | COV2-136-12-Fc (Fc fusion) QLQLVESGGDLVQPGESLRLSCVASGFTFHYYAIGWFRQAPGKEREGVSCISSGGGRTSYADSVRGRFTISRENAKNAVYLEMNSLKPEDTAVYYCAALQGSLHYCSGLVGEYEYWGQGTQVTVSS[human IgG1 Fc with changes not listed] | no binding | no binding
8 | COV2-151-23-Fc (Fc fusion) QLQLVESGGDLVQPGESLRLSCVASASGRTSSTIGWFRQAPGKEREGVSCITWSGGSTSYADSVRGRFTISRENAKNAVYLEMNSLKPEDTAVYYCAAGLSPLMLTASRRYEYWGQGTQVTVSS[human IgG1 Fc with changes not listed] | no binding | no binding
9 | COV2-114-1-Fc (Fc fusion) QLQLVESGGDLVQPGESLRLSCVASGLSLEHYAIGWFRQAPGKEREGVSCISDSGATRSYADSVRGRFTISRENAKNAVYLEMNSLKPEDTAVYYCSATPGAFRTCAFRDFSHLANWGQGTQVTVSS[human IgG1 Fc with changes not listed] | no binding | no binding
10 | COV2-214-24-Fc (Fc fusion) QLQLVESGGDLVQPGESLRLSCVASGRTVSMYAIGWFRQAPGKEREGVSCISRSGRSTSYADSVRGRFTISRENAKNAVYLEMNSLKPEDTAVYYCAARDGGLHYALYVEASHYNYWGQGTQVTVSS[human IgG1 Fc with changes not listed] | no binding | no binding
11 | COV2-122-10-Fc (Fc fusion) QLQLVESGGDLVQPGESLRLSCVASGATSDIYAIGWFRQAPGKEREGVSCISPSGGSTSYADSVRGRFTISRENAKNAVYLEMNSLKPEDTAVYYCAAASPSWHYCSGYEHEYDDWGQGTQVTVSS[human IgG1 Fc with changes not listed] | no binding | no binding
12 | COV2-13-5-Fc (Fc fusion) QLQLVESGGDLVQPGESLRLSCVASGFTLGNYEIGWFRQAPGKEREGVSCISRSGVIFSYADSVRGRFTISRENAKNAVYLEMNSLKPEDTAVYYCAARFRAGLVQSLCQSTPEFYQDWGQGTQVTVSS[human IgG1 Fc with changes not listed] | no binding | no binding
13 | COV2-124-20-Fc (Fc fusion) QLQLVESGGDLVQPGESLRLSCVASGRTFSSYAIGWFRQAPGKEREGVSCISSGGITSYADSVRGRFTISRENAKNAVYLEMNSLKPEDTAVYYCAANRGRFTGWRSLTDYTYWGQGTQVTVSS[human IgG1 Fc with changes not listed] | no binding | no binding
14 | COV2-39-19-Fc (Fc fusion) QLQLVESGGDLVQPGESLRLSCVASGRTFTRYPIGWFRQAPGKEREGVSCISGSGIITSYADSVRGRFTISRENAKNAVYLEMNSLKPEDTAVYYCAVDNAPTSSLPLTPGEYDYWGQGTQVTVSS[human IgG1 Fc with changes not listed] | no binding | no binding
15 | COV2-116-9-Fc (Fc fusion) QLQLVESGGDLVQPGESLRLSCVASGFTLDYYAIGWFRQAPGKEREGVSCISSSGTSTSYADSVRGRFTISRENAKNAVYLEMNSLKPEDTAVYYCAALQGSYYYTSLHQTEYDYWGQGTQVTVSS[human IgG1 Fc with changes not listed] | no binding | no binding
16 | COV2-187-2-Fc (Fc fusion) QLQLVESGGDLVQPGESLRLSCVASGLSLEHYAIGWFRQAPGKEREGVSCIDSSGGSTSYADSVRGRFTISRENAKNAVYLEMNSLKPEDTAVYYCAALQGSYYYTSLHQTEYDYWGQGTQVTVSS[human IgG1 Fc with changes not listed] | no binding | no binding
17 | COV2-171-11-Fc (Fc fusion) QLQLVESGGDLVQPGESLRLSCVASGFTLDYYAIGWFRQAPGKEREGVSCISPSGTSTSYADSVRGRFTISRENAKNAVYLEMNSLKPEDTAVYYCAAANPSYYYCSGYPHEYDDWGQGTQVTVSS[human IgG1 Fc with changes not listed] | no binding | no binding
18 | COV2-143-4-Fc (Fc fusion) QLQLVESGGDLVQPGESLRLSCVASGLTLNNNTIGWFRQAPGKEREGVSCISPSGIVTSYADSVRGRFTISRENAKNAVYLEMNSLKPEDTAVYYCAVLQWNGAGLPSPLGSWGQGTQVTVSS[human IgG1 Fc with changes not listed] | no binding | no binding
19 | COV2-32-26-Fc (Fc fusion) QLQLVESGGDLVQPGESLRLSCVASGRTFGTYRIGWFRQAPGKEREGVSCIFWSGGGASYADSVRGRFTISRENAKNAVYLEMNSLKPEDTAVYYCAARAPTTQEYDYWGQGTQVTVSS[human IgG1 Fc with changes not listed] | no binding | no binding
20 | COV2-356-6-Fc (Fc fusion) QLQLVESGGDLVQPGESLRLSCVASGFTLGNYAIGWFRQAPGKEREGVSCISLSGDIISYADSVRGRFTISRENAKNAVYLEMNSLKPEDTAVYYCAAPFPSLLYCSLCPSNPEFCRHWGQGTQVTVSS[human IgG1 Fc with changes not listed] | no binding | no binding
21 | COV2-353-14-Fc (Fc fusion) QLQLVESGGDLVQPGESLRLSCVASGFRLGGYAIGWFRQAPGKEREGVSCISGSGIISSYADSVRGRFTISRENAKNAVYLEMNSLKPEDTAVYYCAAPSGSSYGSRRLPCGIDSQDYQTWGQGTQVTVSS[human IgG1 Fc with changes not listed] | no binding | no binding
22 | COV2-331-25-Fc (Fc fusion) QLQLVESGGDLVQPGESLRLSCVASGFTFSSYAIGWFRQAPGKEREGVSCLDVTGRSTSYADSVRGRFTISRENAKNAVYLEMNSLKPEDTAVYYCAAVYTPFRFAFKTDPDRQDHWGQGTQVTVSS[human IgG1 Fc with changes not listed] | no binding | no binding
23 | COV2-153-18-Fc (Fc fusion) QLQLVESGGDLVQPGESLRLSCVASGRTVSSYVIGWFRQAPGKEREGVSCISRSGIITSYADSVRGRFTISRENAKNAVYLEMNSLKPEDTAVYYCAAAQTQVLPTEDRSYDYWGQGTQVTVSS[human IgG1 Fc with changes not listed] | no binding | no binding
24 | COV2-22-8-Fc (Fc fusion) QLQLVESGGDLVQPGESLRLSCVASGFTLDRYAIGWFRQAPGKEREGVSCISSGGTTSYADSVRGRFTISRENAKNAVYLEMNSLKPEDTAVYYCAAGTQLRYGCSRQARRYDYWGQGTQVTVSS[human IgG1 Fc with changes not listed] | no binding | no binding
